Test results from PubChem BioAssay AID504832 (National Center for Advancing Translational Sciences (NCATS), 2011).
In all, about 310,000 compounds went through this assay and about 18,000 (5.8%) were called active. Inconclusive results, whose numbers are uncertain, are shown with a selection of clear calls. Calls come from the whole dose curve; as a rule, active = well fitted inhibition curve with a large enough effect; inconclusive = small, poorly fitted or top-dose-only effect, or another doubt; inactive = no such curve, though single readings can be large or run the other way. No potency is given beside an inconclusive call; the fits are too rough.

Test: Primary qHTS for delayed death inhibitors of the malarial parasite plastid, 48 hour incubation
Conditions: P. falciparum luciferase growth in erythrocytes; series mostly up to 28.7 µM; activity change, negative = inhibition: at the top concentration
Summary of the method: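 Firefly luciferase activity from engineered P. falciparum reports growth; inhibitors lower the luminescent signal. Cultures contained 2% hematocrit erythrocytes at 0.1% final parasitemia.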
% is set by controls: 0 for no effect and ±100 for the full control effect; potency is the fitted concentration of half-maximal effect; tags give direction and shape of the fitted curve.

Structure (SMILES)	Potency	activity change, negative = inhibition
Cc1cccc(C)c1NC(=O)C(c1ccccc1)N1CCN(C(=O)c2ccco2)CC1 (stereo unspecified)	inconclusive [inhibitor, partial curve]	
CN1CCN(NC(=O)c2cc([N+](=O)[O-])cc([N+](=O)[O-])c2)CC1	inconclusive [inhibitor, single point]	
COc1ccc(C(=O)NC2CC(C)(C)Cc3c2cnn3-c2ccccc2C)c(OC)c1OC (stereo unspecified)	inconclusive [inhibitor, single point]	
C#CCOCCOCCOCCNc1nc(N2CCN(C(=O)CCCCCCCCCCNC(=O)[C@H](CCCCN)n3cc(CCCC(=O)O)nn3)CC2)nc(N2CCN(C(=O)CCCCCCCCCCNC(=O)[C@H](CCCN=C(N)N)n3cc(C[C@@H](C)CC)nn3)CC2)n1	active: 10.4 µM	
COc1ccc(C(C)=O)cc1COc1cc(C)c(Cl)c(C)c1	inconclusive [inhibitor, single point]	
Cc1nc(SCc2ccccc2)n[nH]1		inactive: 42.3%
Cc1nc2c(Cl)cccc2c2c1CC(CBr)O2 (stereo unspecified)	inconclusive [inhibitor, partial curve]	
CN1/C(=C\C=[N+](C)c2ccccc2)C(C)(C)c2ccccc21	active: 0.415 µM	
Cc1ccc(-c2cc3nc(-c4ccccc4)cc(N4CCC5(CC4)OCCO5)n3n2)cc1	active: 8.28 µM	
CCOC(=O)C1=C(c2ccccc2)Nc2ncnn2C1c1ccc(C(=O)O)cc1 (stereo unspecified)		inactive: 41.9%
Cc1ccccc1C(=NC(=O)c1ccccc1)c1ccccc1	active: 8.28 µM	
COc1ccc(CCNC(=O)c2ccccc2OCc2c(C)noc2C)cc1	inconclusive [inhibitor, single point]	
O=Nc1c(O)n(Cc2ccc(Cl)c(Cl)c2)c2ccccc12	inconclusive [inhibitor, full curve]	
COCCNC(=O)c1cc(Br)ccc1Cl		inactive: 0.11%
N#CCCCn1c(=O)oc2ccccc21		inactive: 6.38%
COc1ccccc1CNC(=O)C(=O)c1cn(CC(=O)N2CCCC2)c2ccccc12	inconclusive [inhibitor, full curve, poor fit]	
O=C(Nc1nc(-c2ccccn2)cs1)c1cc(Cl)ccc1[N+](=O)[O-]	active: 13.1 µM	
CCOc1cc(-c2noc(CCC(=O)Nc3cccnc3)n2)ccc1OC		inactive: -24.2%
Cc1ccc(N2C(=O)CS(=O)C(c3ccccc3)C2=O)cc1C (stereo unspecified)	inconclusive [inhibitor, single point]	
CCCOc1ccccc1N1C(=O)CC(N(O)c2ccccc2)C1=O (stereo unspecified)		inactive: 1.4%
COc1ccc(OC)c(NC(=O)COC(=O)c2n[nH]c3ccccc23)c1	inconclusive [inhibitor, single point]	
COc1ccc(-n2cnc3cc(NS(=O)(=O)c4ccccc4)ccc32)cc1	inconclusive [inhibitor, single point]	
CCN(C(=O)COC(=O)c1ccccc1Cc1ccccc1)C1CCS(=O)(=O)C1 (stereo unspecified)	inconclusive [inhibitor, single point]	
CCN(CC)CC#CCOC(c1ccccc1)c1ccccc1	inconclusive [inhibitor, single point]	

Structure (SMILES)	Potency	activity change, negative = inhibition
O=C(CC12CC3CC(CC(C3)C1)C2)NCC(c1ccc(F)cc1)N1CCOCC1 (stereo unspecified)	active: 11.7 µM	
Cc1ccc(O)c(/C=N/NC(=O)Cc2ccc(Cl)cc2)c1	inconclusive [inhibitor, single point]	
c1cc[n+](CCCC[n+]2ccccc2)cc1		inactive: -7.4%
CC1CCCCN1S(=O)(=O)c1ccc(C(=O)Nc2nnc(C3CC3)o2)cc1 (stereo unspecified)	inconclusive [inhibitor, partial curve]	
CCCCCCN1CC(=O)N2Cc3[nH]c4ccccc4c3C[C@H]2C1=O	inconclusive [inhibitor, single point]	
CCCNc1nc(N2CCCC2)nc(N2CCCC2)n1	inconclusive [inhibitor, partial curve]	
O=C(Nc1cccc(Cl)c1)C1CCCN(C2=NS(=O)(=O)c3ccccc32)C1 (stereo unspecified)	inconclusive [inhibitor, single point]	
COc1ccc2oc(=O)c(C(=O)N3CCN(c4ccc(F)cc4)CC3)cc2c1	inconclusive [inhibitor, single point]	
Cc1ccc(C)c(N2CCN(C(=O)CCS(=O)(=O)c3ccc4c(c3)CCN4C(=O)C3CC3)CC2)c1	inconclusive [inhibitor, partial curve]	
CC1=C(C(=O)OCc2ccccc2)C(c2ccc(C(F)(F)F)cc2)NC(=O)N1CCCCCC(=O)O (stereo unspecified)	inconclusive [inhibitor, single point]	
NC(=O)C1CCN(c2nc(-c3ccc(Cl)cc3)cs2)CC1	inconclusive [inhibitor, single point]	
CC(C)=CCOc1ccc2c(C)c(CC(=O)N3C[C@H]4C[C@@H](C3)c3cccc(=O)n3C4)c(=O)oc2c1C	inconclusive [inhibitor, partial curve, poor fit]	
CC(=O)Nc1nnc(SCC(=O)N2CCCc3ccccc32)s1		inactive: -12%
O=C(Cn1c2ccccc2c(=O)c2ccccc21)Nc1ccccc1F	inconclusive [inhibitor, single point]	
CC(=O)Nc1ccc(S(=O)(=O)N2CCN(CC3CC4C=CC3C4)CC2)cc1 (stereo unspecified)	inconclusive [inhibitor, partial curve, poor fit]	
Fc1ccc(C2CC(c3cccs3)=NN2C(=S)Nc2ccccc2)cc1 (stereo unspecified)	inconclusive [inhibitor, single point]	
CCOc1ccc2c(c1)[nH]c(=S)n2C		inactive: 0%
CCOCC(=O)N1CCCC(C(=O)OCC)C1 (stereo unspecified)	inconclusive [inhibitor, single point]	
Fc1ccc(N2CCN(c3nc(CN4CCOCC4)nc4scc(-c5ccccc5)c34)CC2)cc1	active: 11.7 µM	
Cc1nc(N2CCN(Cc3ccc4c(c3)OCO4)CC2)c2cc(-c3ccccc3)sc2n1	active: 11.7 µM	
CCOc1ccccc1N1CCN(S(=O)(=O)c2ccc(F)c(F)c2)CC1	inconclusive [inhibitor, single point]	
CC(=O)Nc1nnc(SCC(=O)N2C(C)CCCC2C)s1 (stereo unspecified)		inactive: 3.27%
CC(C)(C)c1ccc(OCCC(=O)OCC(=O)N2c3ccccc3NC(=O)C2(C)C)cc1		inactive: 16.2%
COc1ccc(CCNC(=O)CSc2nncn2N)cc1OC		inactive: 27.7%

Structure (SMILES)	Potency	activity change, negative = inhibition
CC(C)(C)C(=O)Nc1cccc(-c2cc(-c3c(Cl)cccc3Cl)no2)c1	inconclusive [inhibitor, full curve, poor fit]	
O=C(NCCn1cc(SCc2ccccc2)c2ccccc21)c1ccccc1F	inconclusive [inhibitor, single point]	
COc1ccc(/C=C/C(=O)NCC(=O)N/N=C(/CCC(=O)O)c2ccccc2)cc1		inactive: -1.11%
Cc1nc2ccc(NS(=O)(=O)c3ccc(Br)cc3)cc2s1		inactive: -7.34%
Cc1cc(Cl)ccc1C(=O)C1CCCN(C(=O)c2cccc(N3CCCC3=O)c2)C1 (stereo unspecified)	inconclusive [inhibitor, partial curve, poor fit]	
CC(C(=O)Nc1cccnc1)n1cc([N+](=O)[O-])cn1 (stereo unspecified)	inconclusive [inhibitor, full curve, poor fit]	
COc1cccc(-c2nc(=S)c3c(n2Cc2ccco2)CCCC3)c1	inconclusive [inhibitor, single point]	
N#Cc1c(C(F)(F)F)cc(-c2cccs2)nc1SCc1cccnc1	inconclusive [inhibitor, full curve, poor fit]	
O=C(C/C=N/OCc1ccc(Cl)cc1Cl)c1ccc(Cl)cc1	inconclusive [inhibitor, partial curve]	
COc1cccc(/C=C2\SC(=S)N(CCCC(=O)N3CCCCC3)C2=O)c1	inconclusive [inhibitor, single point]	
FC(F)(F)c1cc(-c2cccs2)nc2cc(-c3cccs3)nn12	inconclusive [inhibitor, single point]	
COc1ccc2sc(-c3ccc(SC)cc3)c(C#CC(C)(C)O)c2c1		inactive: 0%
Cc1cc(NC(=O)Cc2ccccc2)c2ccccc2n1		inactive: -13.6%
COc1cccc(-c2nc(CS(=O)(=O)CC(=O)NCCc3ccc(C)cc3)c(C)o2)c1	inconclusive [inhibitor, single point]	
CCOC(=O)Cc1csc(NC(=S)NC(=O)c2ccc(Cl)cc2)n1	inconclusive [inhibitor, full curve]	
CCOC(=O)CCS(=O)(=O)c1nc(-c2ccccc2)cc(C(F)(F)F)n1		inactive: 12.9%
COc1ccc(N(C)S(=O)(=O)c2cccc(C(=O)NCc3ccc(C)cc3)c2)cc1		inactive: -10.8%
CCn1c(-c2cc(-c3ccccc3OC)nc3ccccc23)n[nH]c1=S	active: 2.62 µM	
COC(=O)/C=C(\C)N=Nc1c(O)[nH]c2ccccc12	inconclusive [inhibitor, partial curve, poor fit]	
Cc1ccc(C(=O)CCNc2cccc(Br)c2)o1		inactive: 15.5%
Cc1onc(-c2ccccc2)c1C(=O)Nc1nc2c(s1)C(=O)CC(C)(C)C2		inactive: -10.7%
CC1(C)Cc2nc3oc4c(NCCCN5CCOCC5)ncnc4c3cc2CO1		inactive: 37.4%
C/C=C/c1ccc(OCCCNC2CCCC2)c(OC)c1	inconclusive [inhibitor, single point]	
